B1: LINE1-mini (parent)
chain: GGCAGAGCUCAACACAGCGUGGCAAAGUGGCUGUGGCUAGACUGCC

We go through 167 variants from the RNAGym collection of RNA variant scans (doi:10.7554/elife.90254).

Read counts are not given, so values of variants with three or more changes are uncertain.

Variants of B1 are the subject of the data set. The data set is described as follows: self-cleavage, relative activity (ratio to wild type); higher = more cleavage; in vitro, sequencing; the parent is a self-cleaving ribozyme.
Consider C13U G30C C31G G35U C42U, for which the self-cleavage was 0.03.

With A14C G35U C46A, the self-cleavage is 0.04.

With A14C G29A C31U G44A, the self-cleavage was found to be 0.05.

On to A14C G17A A39G, for which the self-cleavage turned out to be 0.

Turning to A14U G17A G19A A41U, the self-cleavage is 0.01.

On to A14U U20A G29U A41U, for which the self-cleavage is 0.42.

As for A14G G19A C23U, the self-cleavage was 0.28.

As to A14G C15U C45A, the self-cleavage was 0.05.

On to A14C G19A U34G, for which the self-cleavage stood at 0.08.

Take C15A A16U A25C G36U C37A: the self-cleavage is 0.02.

A14C G19A G30A: the self-cleavage was found to be 0.03.

Consider A14C A16G U38G C42A, for which the self-cleavage was found to be 0.01.

In the case of A14C A16G A24U A25C, the self-cleavage turned out to be 0.02.

Turning to C13U C18U G29A C42U, the self-cleavage came to 0.01.

Consider A14C G21U A25G, for which the self-cleavage stood at 0.06.

Take C15A A24G G30U U38G: the self-cleavage was 0.02.

As for C13U G19A C37U, the self-cleavage worked out at 0.14.

Consider A14C G17A C31A G44A C46G, for which the self-cleavage turned out to be 0.01.

For C13U C18U G30C G44C, the self-cleavage stood at 0.05.

For the variant C13U U20A A26G G30A C42G, the self-cleavage turned out to be 0.03.

Take C13U G35C G44U C45A: the self-cleavage was determined as 0.08.

Turning to A14C G19A A25C, the self-cleavage was 0.02.

Consider C13U G27C U28C U32G G36U G44A, for which the self-cleavage stood at 0.01.

As to A14C G36A U38C C46G, the self-cleavage amounted to 0.03.

In the case of A14G G29C C37G C46U, the self-cleavage is 0.01.

As for A14G A26U G27U G30A A39C, the self-cleavage came out at 0.01.

A14C A25G G30A: the self-cleavage was determined as 0.03.

In the case of A14U G21U C23A, the self-cleavage is 0.81.

Take A14G G21C G30A U34A: the self-cleavage came out at 0.12.

For C13U U38G C46G, the self-cleavage was found to be 0.01.

Turning to A14U G36A C45U, the self-cleavage was 0.08.

As to C13U G36A C45A, the self-cleavage was 0.

Turning to A14C G17C G22U A41U, the self-cleavage stood at 0.08.

For the variant A14G G29C C31U, the self-cleavage is 0.04.

As to C13U C15A G21C G22C A25C, the self-cleavage was found to be 0.02.

For A14C A41G C42U, the self-cleavage was 0.05.

As to A14C A16G G30U U34A C42A, the self-cleavage amounted to 0.08.

A14U G22A A24U G29C: the self-cleavage is 0.14.

Consider C13U U20C G35U A39C, for which the self-cleavage turned out to be 2.9.

For C13U G22C G29U, the self-cleavage was found to be 0.

On to A14G A24U U32C G36A U43G, for which the self-cleavage came out at 0.04.

For the variant A14G G21C A25U C42A, the self-cleavage was found to be 0.02.

With A14G U34A U43C, the self-cleavage is 0.02.

For A14C A16U G17U U38G A39U G44A, the self-cleavage was 0.03.

Consider A14U A24G G40C, for which the self-cleavage worked out at 0.1.

C13U G17U U20C U32C: the self-cleavage came to 0.02.

For the variant A14C G21U G30U G36U, the self-cleavage was determined as 0.05.

Turning to C13U G29U C37A, the self-cleavage amounted to 0.06.

With A14C C18A A41U, the self-cleavage came to 0.09.

Consider A14G G17C A24C G27C A41U, for which the self-cleavage worked out at 0.13.

Regarding A14C C15U C31A C37U, the self-cleavage was found to be 0.03.

Take A14G U32G C37U: the self-cleavage came to 0.02.

With C13U U32C G40C, the self-cleavage was determined as 0.04.

Regarding A14U G21A G40U, the self-cleavage was found to be 0.21.

As to A14C A16U G29C G36U G40U C45U, the self-cleavage was 0.03.

Regarding A14U G22A A39U, the self-cleavage turned out to be 0.04.

In the case of A14U U20C C31A G33U A41G C45U, the self-cleavage came out at 0.03.

Take C13U G17C G19U G22U G35C: the self-cleavage came out at 0.04.

A14C C23U C45U: the self-cleavage came to 0.08.

On to A14C G21C U28A, for which the self-cleavage was 0.05.

In the case of A14G C15U U20G C37A, the self-cleavage worked out at 0.03.

Consider C13U G17C G21A G33C, for which the self-cleavage worked out at 0.03.

As for A14G G17C G27U U34G, the self-cleavage was 0.03.

Consider A14G G17C C18A G29C U34A, for which the self-cleavage was 0.04.

On to A14C G27C G30A C45U, for which the self-cleavage amounted to 0.07.

Consider A14G C23G G29C U38A, for which the self-cleavage worked out at 0.04.

On to A14U C18A G30U, for which the self-cleavage came to 0.08.

In the case of C13U G21U C42G C45G, the self-cleavage worked out at 0.02.

Regarding A14C G27U G30A U34C G36A, the self-cleavage stood at 0.01.

On to C15A A25U G27A A39G, for which the self-cleavage was found to be 0.03.

For A14G U34C C37U, the self-cleavage worked out at 0.07.

Regarding A14U G17U G33A, the self-cleavage was found to be 0.07.

In the case of A14C G30C G40U, the self-cleavage was 0.06.

Take A14U G22U C45U: the self-cleavage came out at 0.05.

Consider A14U C15G A26G A39C A41C, for which the self-cleavage turned out to be 0.07.

On to C13U G19C C31U A39U, for which the self-cleavage was 0.03.

On to C13U U32C G36C, for which the self-cleavage was 0.09.

A14G A39C G40U A41C: the self-cleavage is 0.02.

As for C13U C18G C31A, the self-cleavage was determined as 0.08.

For the variant A14C G36U C45G, the self-cleavage was found to be 0.03.

As to C15A A16U U28A U43C G44A, the self-cleavage worked out at 0.01.

For C13U U38G G40U, the self-cleavage was 0.04.

For C13U U34C C45G, the self-cleavage is 0.02.

On to A14U C31G G33U, for which the self-cleavage worked out at 0.07.

As to A14G C37U U43A, the self-cleavage came to 0.18.

For the variant A14C G19C A39C, the self-cleavage is 0.

Regarding C13U G30U C45G, the self-cleavage came out at 0.17.

A14U C15U G21A G33U: the self-cleavage was 0.08.

Turning to C13U C23G G29C C45U, the self-cleavage worked out at 0.08.

With A14C C23G G44U, the self-cleavage is 0.03.

As for A14G G44C C46G, the self-cleavage is 0.03.

Turning to C13U C31G G36U, the self-cleavage was 0.28.

As to C13U C15A A24U G27A U38G, the self-cleavage is 0.03.

Turning to A14G C23U G27C, the self-cleavage was 0.11.

On to A14U A41U C46U, for which the self-cleavage was 0.03.

For the variant A14U C23A G33A G35A, the self-cleavage amounted to 0.04.

Take A14C C15U C46A: the self-cleavage turned out to be 0.09.

Regarding C13U C15U C46A, the self-cleavage is 0.25.

As to C13U C18A G30U C31A G33C, the self-cleavage turned out to be 0.03.

For the variant A14C G19U G44U, the self-cleavage is 0.11.

Turning to A14U G29U G35U, the self-cleavage worked out at 0.16.

On to A14G G19C A26G, for which the self-cleavage is 0.09.

Consider A14G C23U A25U G27U G35C G44A, for which the self-cleavage came to 0.01.

Take A14G A16G A24U A26U G44A: the self-cleavage turned out to be 0.03.

For the variant A14U G19U G27U G40C, the self-cleavage came out at 0.05.

As for A14G A16C U28C, the self-cleavage amounted to 0.04.

As to C15A A16G C18A, the self-cleavage stood at 0.05.

With C13U C15A G40U, the self-cleavage is 0.14.

Take C13U C18A G21U: the self-cleavage was found to be 0.09.

In the case of A14C A16G G17U U28G, the self-cleavage was 0.03.

Regarding C13U G36A C46A, the self-cleavage is 0.

As for A14G C15A U38C C42G C45A, the self-cleavage came out at 0.2.

With A14C C15U U20A C23U, the self-cleavage amounted to 0.14.

With A14U A25G G35U, the self-cleavage is 0.09.

For the variant C15A A25U C42A, the self-cleavage was 0.05.

In the case of A14U A16G A24U U34C, the self-cleavage turned out to be 0.14.

Regarding A14C A16U G29U A41U, the self-cleavage amounted to 0.15.

In the case of A14C G22C C23U A25U, the self-cleavage stood at 0.08.

As for A14G C18A G19C U38G, the self-cleavage was determined as 0.12.

Turning to A14G G21A G35U G44A, the self-cleavage is 0.04.

C13U C18G U20A C42U: the self-cleavage was 0.07.

Turning to A14U G17C G36A, the self-cleavage is 0.09.

As to A14U G19A G22C G36A C37A G44U, the self-cleavage came out at 0.01.

For A14U U20A A26U G40C, the self-cleavage stood at 0.1.

Turning to A14G U28G U34A, the self-cleavage worked out at 0.12.

For the variant C13U G22C G40U, the self-cleavage was 0.05.

Consider A14G C23A G35A, for which the self-cleavage came out at 0.08.

Turning to A14U C18A G19U U38G C45U, the self-cleavage came to 0.03.

For A14C C23U A41G U43A, the self-cleavage was 0.03.

Turning to C13U G19C C23G G40A, the self-cleavage was 0.03.

Regarding A14U G35U C45G, the self-cleavage came out at 0.02.

For the variant A14G G40A C42G, the self-cleavage was 0.06.

Consider A14C U20C G21A G22U A24U, for which the self-cleavage is 0.06.

As to C13U U34G G36U, the self-cleavage amounted to 0.09.

As for A14U G17C A24U C37G C45U, the self-cleavage was found to be 0.12.

For the variant A14C C15A U20A U28C G29C, the self-cleavage stood at 0.01.

For A14U C15G C23G C46G, the self-cleavage stood at 0.01.

As to C13U G17U U34A A39C, the self-cleavage is 0.05.

As to A14U C15U G30C G36A U43C, the self-cleavage stood at 0.02.

In the case of C13U U20A G35U, the self-cleavage amounted to 0.03.

Take A14C A16U G44U: the self-cleavage amounted to 0.07.

As for C13U C15U C37G, the self-cleavage was 0.03.

A14G G17U C23A U32G G35U: the self-cleavage turned out to be 0.03.

Take A14G U32A A41C C45G: the self-cleavage was determined as 0.

Consider A14U C15G G19A A26G G27A, for which the self-cleavage was 0.02.

In the case of A14G A26U C31G U34G, the self-cleavage was determined as 0.01.

A14U U32C U38C: the self-cleavage was 0.11.

Regarding A14G C15A U20C G40U, the self-cleavage is 0.

In the case of C13U G36A G44A, the self-cleavage is 0.09.

In the case of A14C A26C A39U C45U, the self-cleavage was found to be 0.

On to A14U G35C C45A, for which the self-cleavage is 0.14.

With A14G G17C U20G U28C A39G, the self-cleavage stood at 0.02.

For the variant C13U G19A C31A, the self-cleavage amounted to 0.04.

For the variant C13U G19U G36A, the self-cleavage worked out at 0.23.

As to A14U A16G G29C C31A A41C, the self-cleavage was found to be 0.04.

For the variant A14G A16C G40U, the self-cleavage was 0.02.

Take C13U G17C C23G G29C C31U: the self-cleavage turned out to be 0.1.

Turning to C13U C23U G35U, the self-cleavage is 0.08.

In the case of A14C G30C C42A C46U, the self-cleavage was determined as 0.07.

On to C15A A25C G40A, for which the self-cleavage is 0.03.

For the variant A14U A24G A25U G36A G44A, the self-cleavage turned out to be 0.05.

As to C13U G22C A24G A25G G30U, the self-cleavage came to 0.03.

Turning to A14G C23A U32A, the self-cleavage was 0.04.

Take C13U U20C G29C G44U: the self-cleavage turned out to be 0.05.

With A14C C15G G19U, the self-cleavage came out at 0.08.

Consider C15A A26G A39U, for which the self-cleavage was 0.

For the variant A14C G19A G36U U38A G44A, the self-cleavage turned out to be 0.01.
